SMILES strings stand for the structures. About 6,900 (2%) of roughly 340,000 compounds were called active. Cut-off read from the data, not from the text of the source: active = inhibition above about 30%; inactive = below that, where a call was filed. Only a part is listed here, and it is no random draw. The source gives no active or inactive call for entries shown without one.

By inhibition is commonly meant the relative decrease from the control value, in per cent.

The experiment concerns the target D(2) dopamine receptor (Homo sapiens) (UniProt P14416). Nature of the experiment: HTS Assay for Allosteric Antagonists of the Human D2 Dopamine Receptor: Primary Screen for Antagonists. Note: 0% is about no effect. The settings on record: HEK293 TREx D2 cells, calcium flux, dopamine EC80; at 10 µM; stronger effect = higher value. The essentials: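 In this primary screen, negative modulation is detected by tracking calcium flux after an EC80 dopamine challenge in inducible HEK293 T-REx D2 cells preexposed to test compound for 180 s.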
UniProt P14416, sequence (P14416 whole entry, looked up): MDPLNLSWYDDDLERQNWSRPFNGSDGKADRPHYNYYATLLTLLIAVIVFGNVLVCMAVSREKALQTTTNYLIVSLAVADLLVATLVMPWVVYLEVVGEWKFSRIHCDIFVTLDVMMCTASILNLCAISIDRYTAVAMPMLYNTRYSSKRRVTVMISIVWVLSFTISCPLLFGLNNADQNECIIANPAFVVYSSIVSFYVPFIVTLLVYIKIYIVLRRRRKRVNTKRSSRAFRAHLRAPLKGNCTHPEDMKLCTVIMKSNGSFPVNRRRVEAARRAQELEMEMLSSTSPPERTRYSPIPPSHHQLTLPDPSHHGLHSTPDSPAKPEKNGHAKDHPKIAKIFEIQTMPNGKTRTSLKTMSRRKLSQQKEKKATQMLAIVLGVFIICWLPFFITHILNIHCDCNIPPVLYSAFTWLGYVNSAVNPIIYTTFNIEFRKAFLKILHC
(In general: Calcium flux is commonly read through the fluorescence of an indicator in the cells.)
Turning to `COc1ccc(S(=O)(=O)c2cn(CC(=O)Nc3ccccc3)c3ccc(Cl)cc3c2=O)cc1`, the inhibition was -3.99%.

For the compound `COc1ccc(CSc2nc3ccncc3n2Cc2nc(-c3ccc(OC)c(OC)c3)oc2C)cc1`, the inhibition worked out at 12.6%.

For the compound `CCOC(=O)CSc1nc2c([nH]c3ccccc32)c(=O)n1-c1ccc(OCC)cc1`, the inhibition worked out at 0.499%. The result for `Cc1ccccc1C(=O)Nc1nc2c(s1)CC(C(C)(C)C)CC2` (configuration not stated) reads -2.7%; that for `COc1ccc2c(c1)c1c(c(=O)n(-c3cccc(Cl)c3)c(=O)n1C)n2C`, 5.59%; that for `CCOC(=O)c1c(-c2ccccc2)oc2ccc(NS(=O)(=O)c3ccccc3)cc12`, 6.08%.

In the case of `COc1ccc(S(=O)(=O)NCc2cccn2Cc2cccc(C)c2)cc1OC`, the inhibition amounted to 8.15%. As to `CCN(C(=O)CSc1nnc(C)n2c1cc1occc12)c1ccccc1`, the inhibition worked out at 19.5%. As for `Cc1cc([N+](=O)[O-])ccc1NC(=O)CSc1nccn1C`, the inhibition was 15.4%. The result for `COc1ccc(CNC(=O)c2cnc(N3CCCC3)nc2C)cc1` reads -1.08%; that for `O=C(CSc1cn(CC(=O)N2CCOCC2)c2ccccc12)Nc1ccccc1C(F)(F)F`, -9.39%; that for `Cc1cccc(NC(=O)CSc2nc(=O)n(CCN3CCOCC3)c3c2CCC3)c1C`, 5.22%.

With `Cc1cccc(Cn2nnc3c(=O)[nH]c(C4CCN(C(=O)c5ccccc5F)CC4)nc32)c1`, the inhibition stood at 2.67%.

With `CCCC(=O)NCc1nc2cccnc2n1Cc1ccc(F)cc1`, the inhibition was -6.5%. Regarding `CCOC(=O)c1ccc(NC(=O)Cc2coc3cc(C)cc(C)c23)cc1`, the inhibition was determined as 6.75%. For `Cc1ccc(NC(=O)Cn2c(=O)n(Cc3ccc4c(c3)OCO4)c(=O)c3ccc(C(=O)NC4CCCCC4)cc32)cc1` the value was 2.09%; for `O=C(Nc1cc(-c2nc3ccccc3o2)ccc1Cl)c1cccc2c(Cl)cccc12`, -6.62%; for `Cc1ccc2[nH]c3c(c2c1)CN(C)CC3`, active: 31.1%. For `O=C(COC(=O)/C=C/c1ccc(Cl)cc1)NC(=O)NCc1ccccc1` the value was active: 44.2%; for `Cc1ccc(CNC(=O)C(=O)NCC(c2cccs2)S(=O)(=O)c2ccccc2)cc1` (configuration not stated), -0.663%. In the case of `CCCn1c(=N)c(C(=O)NCc2ccccc2)cc2c(=O)n3cccc(C)c3nc21`, the inhibition was -1.37%. For `N#C/C(=C\c1ccc(-c2ccc(Br)cc2)o1)C(=O)Nc1ccccc1O`, the inhibition turned out to be 6%.

For the compound `Cc1ccc(-n2ncc3c(N4CCN(Cc5ccccc5)CC4)ncnc32)cc1C`, the inhibition was found to be 14.4%.

Consider `S=c1[nH]c(-c2ccccc2)cn1/N=C/c1cccc2ccccc12`, for which the inhibition was active: 33%. The result for `Cc1oc(-c2ccccc2F)nc1Cn1c(SCc2cccc(Cl)c2)nc2ccncc21` reads -5.21%; that for `O=c1c2c(nc3cc(-c4ccc(Br)cc4)[nH]n13)CCCC2`, active: 54.1%. On to `O=C(NCCc1csc(-c2ccc(C(F)(F)F)cc2)n1)c1ccccc1Cl`, for which the inhibition was 1.38%. The result for `Cc1cccc(OCC(=O)Nc2ccc(S(=O)(=O)N(Cc3ccccc3)c3ccccc3)cc2)c1` reads -9.15%; that for `COC(=O)c1ccccc1NC(=O)C1CCCN(C(=O)c2cnn(-c3ccc(F)cc3)c2-n2cccc2)C1` (configuration not stated), 10.5%. For `CCc1nn(CC(=O)NCC(C)c2ccccc2)c(=O)c2cc3c(OC)cccc3n12` (configuration not stated) the value was 2.91%; for `COCCn1c(=O)[nH]c2cc(C(=O)N3CCN(c4ccc(F)cc4)CC3)ccc2c1=O`, -13.6%.

Take `Cn1c(-c2nonc2NC(=O)c2ccc(C(C)(C)C)cc2)nc2ccccc21`: the inhibition is active: 44.2%. The result for `Cc1cc(Br)cc(C)c1OCC(=O)Nc1ccc(S(=O)(=O)Nc2ncccn2)cc1` reads 12%; that for `CCN1c2ccccc2-c2nc(SCC(=O)Nc3cc(C)c(Cl)cc3OC)ncc2S1(=O)=O`, 9.11%. The result for `O=C(COc1ccc(F)cc1)NCc1ccc2c(c1)CCN2C(=O)c1ccc(F)cc1` reads -2.19%; that for `Cc1ccc(C)c(N2CCN(c3nc4ccccc4n4nnnc34)CC2)c1`, 6.46%.

Consider `COc1ccc(CCNC(=O)c2c3c(nc4ccccc24)C(=O)N(C2CCCCC2)C3)cc1OC`, for which the inhibition worked out at 5.76%.

With `O=C(Nc1ccc(F)c(Cl)c1)C1CCN(c2ncccn2)CC1`, the inhibition is -21.5%.

Regarding `Nc1ncc(S(=O)(=O)N2CCN(c3ccccc3)CC2)cn1`, the inhibition worked out at 9.37%. The result for `COc1ccccc1C(=O)Nc1ccnn1C1CCN(Cc2csc(C(C)=O)c2)CC1` reads active: 31.7%; that for `COC(=O)CC1Oc2ccc(Cl)cc2-n2cc(-c3ccc(C)cc3)nc21` (configuration not stated), 14.2%; that for `O=C(CSc1nc2c([nH]c3ccccc32)c(=O)n1-c1ccc(F)cc1)Nc1ccc2c(c1)OCO2`, -26.6%.

For `Cc1ccc(S(=O)(=O)C(CNC(=O)C(=O)NCCc2ccc(F)cc2)c2cccs2)cc1` (configuration not stated), the inhibition is -8.04%. As for `COc1cc(NC(=O)CSc2ccc(-c3sc(C)nc3C)nn2)cc(OC)c1`, the inhibition is -10.7%. The result for `COc1ccc(N2CCN(C(=O)c3ccc(CS(=O)c4cccc(C)c4)o3)CC2)cc1` (configuration not stated) reads -3.72%; that for `COc1ccc(Cl)cc1NC(=O)c1oc2ccc(S(=O)(=O)N3CCCCC3)cc2c1C`, 5.83%. The result for `CCCOc1ccc(C(=O)Nc2cccc(NC(=O)c3ccc(Cl)cc3Cl)c2)cc1` reads 4.46%; that for `CC(=O)N1CCc2cc(CNS(=O)(=O)c3ccccc3C(F)(F)F)ccc21`, -0.788%. The result for `Cc1nn(CC(=O)NCc2ccco2)c(=O)c2nn(-c3ccccc3)c(C)c12` reads -3.82%. For the compound `CCOc1cccc(C2Oc3nc(SC)nnc3-c3ccccc3N2C(C)=O)c1OC` (configuration not stated), the inhibition worked out at 10.3%.

For `O=C(CSc1nc2ccccc2n1Cc1cccc(C(F)(F)F)c1)NCc1ccccc1`, the inhibition was found to be 5.82%.

For `Cc1cc(C)cc(NC(=O)Cn2c(C)cc(C)c(C#N)c2=O)c1`, the inhibition was -7.45%. For `O=C(O)c1ccc(CSc2nc3cccnc3n2Cc2cccc(F)c2)cc1` the value was -5.21%; for `CC(=O)Nc1ccc(NC(=O)c2c(-c3ccccc3)noc2C)cc1`, 15.8%; for `CCNC(=S)NNC(=O)c1ccccc1OC(F)F`, active: 32.7%. For `COc1ccc(-n2cnc3cc(C(=O)NCCC4=CCCCC4)ccc32)cc1` the value was -21.5%; for `COC(=O)c1ccccc1NC(=O)Cc1nc(-c2ccc(OC)cc2)no1`, -0.92%; for `Cc1csc2nc(COC(=O)c3ccc(NC(=O)c4ccccc4Br)cc3)cc(=O)n12`, -25.8%. For `COc1ccc(OC)c(NC(=O)CN(c2ccccc2OC)S(=O)(=O)c2ccc(C)cc2)c1` the value was -10.9%; for `O=C(Nc1cccc(C(=O)OCc2cc(=O)n3ccsc3n2)c1)c1ccc(F)cc1`, 10.5%. With `Cc1nc2nc(SCC(=O)NCCc3ccc(Cl)cc3)nn2c(C)c1Cc1c(F)cccc1Cl`, the inhibition came to 13.6%.

Take `CCOCCCNC(=O)CCC(=O)NNc1nc2ccccc2c2nc(C)nn12`: the inhibition was -1.47%.

Values taken from PubChem BioAssay AID485344 (National Center for Advancing Translational Sciences (NCATS), 2010).
